Out of some 2,800 compounds screened, fewer than 10 were called active. Calls follow the shape of the dose curve; as a rule, active = well fitted curve in the direction sought with a large enough effect; inconclusive = small, poorly fitted or top-dose-only effect, or another doubt; inactive = no such curve, though single readings can be large or run the other way. The list shows a part of the results.
What follows are compounds tested against Metallo-beta-lactamase type 2 (Klebsiella pneumoniae) (UniProt C7C422) (assay: qHTS to identify inhibitors of the New Delhi Metallo-beta-lactamase (NDM): Meropenem screen against the machine-based learning selections.). Settings: Purified NDM-1, meropenem hydrolysis, absorbance 300 nm; at 38.4 µM (top of the series) unless noted.
Chain of UniProt C7C422 (C7C422 whole entry, looked up): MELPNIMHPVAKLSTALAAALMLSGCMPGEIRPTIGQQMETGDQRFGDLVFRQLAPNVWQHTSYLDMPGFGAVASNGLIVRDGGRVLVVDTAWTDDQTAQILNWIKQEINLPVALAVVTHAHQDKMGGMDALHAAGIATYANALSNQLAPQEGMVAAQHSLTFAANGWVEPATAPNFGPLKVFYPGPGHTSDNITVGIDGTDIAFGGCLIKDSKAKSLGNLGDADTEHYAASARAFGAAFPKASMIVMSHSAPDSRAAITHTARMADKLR
Procedure, shortened: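 Hydrolysis by 2 nM NDM-1 was followed by absorbance after >30 min compound preincubation in HEPES pH 7.0 buffer with 1 uM Zn2SO4. For nitrocefin (16.7 uM, 15 min, 485 nm) and meropenem (50 uM, 30 min, 300 nm), each substrate ran on separate plates.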
`COc1ccc(C(=O)N[C@H](C)c2onc(-c3ccc(F)cc3)c2C(=O)O)cc1` was tested, and the activity change, negative = inhibition was inactive: 8.11% [at 57.5 µM].
With `CCc1nc2c(c(-c3ccc(O)cc3)n1)CN(Cc1ccccc1OC)CC2` the activity change, negative = inhibition was inactive: 2.83%.
For `O=C(O)Cn1ccc2cc(OCCc3cccc(-c4ccccc4)c3)cnc21`, the activity change, negative = inhibition was inactive: 21.8% [at 57.5 µM].
In the case of `COc1cc(F)cc(-c2cnc3[nH]cc(CC(=O)NCc4cccnc4)c3c2)c1`, the activity change, negative = inhibition is reported as inactive: 1.07% [at 57.5 µM].
With `COc1ccc(C(=O)NC[C@H]2O[C@@H](CC(=O)N3CCN(c4ccccc4OC)CC3)[C@H](O)[C@@H]2O)cc1` the activity change, negative = inhibition was inactive: 0.607%.
`COCC(=O)NC[C@H]1OC[C@@H](NC2CCC2)[C@@H]1O` was tested, and the activity change, negative = inhibition was inactive: -0.146% [at 76.7 µM].
In the case of `O=C(O)C1CN(c2nccc(N3CCC(O)CC3)n2)CCN1` (configuration not stated), the activity change, negative = inhibition is reported as inactive: 45.8%.
For `O=C(O)Cn1ccc2cc(OCc3cccc(-c4cccc(C(F)(F)F)c4)c3)cnc21`, the activity change, negative = inhibition was inactive: 25.8% [at 57.5 µM].
`O=C(c1ccc(OC(F)F)cc1)N1CCCC(O)(CN2CCCC2)C1` (configuration not stated) was tested, and the activity change, negative = inhibition was inactive: -0.303%.
With `C=CCN(C)C(=O)[C@@H](C)C1CC[C@@]2(C)Cc3sc(CSc4ccccc4)nc3[C@@H](C)[C@@H]2[C@H]1O` (some centres not stated) the activity change, negative = inhibition was inactive: -0.356%.
`Cc1ccc(OC2(C(=O)N[C@H]3CCc4ccccc43)CCNCC2)cc1` was tested, and the activity change, negative = inhibition was inactive: -0.232%.
`Cc1nnc([C@@H]2CC(F)(F)CN2C(=O)c2ccc3ncccc3c2)o1` was tested, and the activity change, negative = inhibition was inactive: -4.78%.
With `CC(C)NC(=O)N[C@H]1C[C@@H](Cc2cc(-c3ccccc3)on2)C1(C)C` the activity change, negative = inhibition was inactive: 0.8% [at 57.5 µM].
For `CC1(COc2ccccc2)COc2ccc(C(=O)NCCc3cnc[nH]3)cc2N1` (configuration not stated), the activity change, negative = inhibition was inactive: 1.59% [at 57.5 µM].
With `NC(=O)c1cccc(-c2ccc3c(n2)CN(Cc2nc4ccccc4s2)C(=O)CO3)c1` the activity change, negative = inhibition was inactive: 4.75% [at 57.5 µM].
In the case of `Cc1ccc(S(=O)(=O)N[C@H]2CO[C@H]3[C@@H]2OC[C@@H]3Nc2nccc(C(C)(C)C)n2)cc1`, the activity change, negative = inhibition is reported as inactive: 2.58% [at 57.5 µM].
With `Cc1ccccc1Oc1ncccc1CNCc1cccc(O)c1` the activity change, negative = inhibition was inactive: -0.0618%.
For `CCCc1nnc([C@H]2CCN(Cc3ccc(C)o3)C2)o1`, the activity change, negative = inhibition was inactive: 14.5% [at 76.7 µM].
`COc1cc(NC(=O)Cn2nc3c(cc2=O)CCCCC3)cc(OC)c1OC` was tested, and the activity change, negative = inhibition was inactive: 1.04%.
For `C[S+](=O)([O-])Nc1cccc(Nc2cnc3ccc(-c4ccc(F)cc4)nn23)c1`, the activity change, negative = inhibition was inactive: 19.2% [at 57.5 µM].
For `Cc1cccc(O[C@H]2COCCN(Cc3ccccn3)C2)n1`, the activity change, negative = inhibition was inactive: -3.52% [at 57.5 µM].
`O=c1cc(CN2CCCC(c3nccn3Cc3ccccc3)C2)[nH]c(=O)[nH]1` (configuration not stated) was tested, and the activity change, negative = inhibition was inactive: 90.4%.
`Cc1cc(C(=O)N[C@H](C)c2c(-c3ccc(Cl)cc3)noc2C(=O)O)c(C)o1` was tested, and the activity change, negative = inhibition was inactive: 53.2% [at 57.5 µM].
`Cc1nc(CC(=O)N2CC[C@@H](NC(=O)c3cnccn3)[C@H](O)C2)cs1` was tested, and the activity change, negative = inhibition was inactive: 3.16%.
For `COc1ccc(C(=O)N2CCC(=O)N(Cc3ccc(F)cc3)C(C(C)C)C2)o1` (configuration not stated), the activity change, negative = inhibition was inactive: 7.28%.
In the case of `Cc1ccccc1C1CCCN1Cc1ncccc1C(=O)O` (configuration not stated), the activity change, negative = inhibition is reported as inactive: 60.6%.
In the case of `COc1ccc(CN2C[C@@H](CO)[C@H](C3CCN(C(C)=O)CC3)C2)cc1C`, the activity change, negative = inhibition is reported as inactive: -0.125%.
In the case of `N#Cc1cccc(CN2Cc3[nH]cnc3C[C@H]2c2nc(-c3ccc(OC(F)(F)F)cc3)no2)c1`, the activity change, negative = inhibition is reported as inactive: 13.8%.
In the case of `CCNC(=O)Cc1c[nH]c2ncc(-c3ccccc3C)cc12`, the activity change, negative = inhibition is reported as inactive: 5.72% [at 57.5 µM].
`OC(c1cccc(C(F)(F)F)c1)c1nc(Nc2ccccc2)n[nH]1` (configuration not stated) was tested, and the activity change, negative = inhibition was inactive: -0.239% [at 57.5 µM].
`Fc1ccc2c(c1)nc1n2[C@@H](CNC2CCC2)COC1` was tested, and the activity change, negative = inhibition was inactive: -4.78% [at 76.7 µM].
`COc1ccccc1CN1C(=O)COC[C@@H]1[C@H](O)c1ccc(NC(=O)CCc2ccccc2)cc1` was tested, and the activity change, negative = inhibition was inactive: -0.258%.
With `O=c1cc(CNCc2nc(-c3ncccn3)no2)[nH]c2ccc(F)cc12` the activity change, negative = inhibition was inactive: 15.5%.
In the case of `CN(Cc1ccccc1)C(=O)C[C@@H]1O[C@H](CNCc2ccc(F)cc2)[C@@H](O)[C@H]1O`, the activity change, negative = inhibition is reported as inactive: -2.09% [at 57.5 µM].
With `COCCN1C(=O)[C@@H]2C[C@@H](CN2Cc2ccccc2)Oc2ccccc21` the activity change, negative = inhibition was inactive: 0.296% [at 57.5 µM].
For `COc1ccc(C(=O)Nc2ccc([C@@H](O)[C@H]3COCC(=O)N3Cc3ccc(F)cc3)cc2)cc1OC`, the activity change, negative = inhibition was inactive: 4.78%.
For `O=C(c1cc(F)ccc1F)N1CCN(c2cc(-c3ccc(Cl)cc3)[nH]n2)CC1`, the activity change, negative = inhibition was inactive: -2.4%.
With `CCCn1ccc2oc(C)c(C(=O)NCc3ccc(CC)cc3)c2c1=O` the activity change, negative = inhibition was inactive: 1.82%.
With `CN1[C@@H](CCC(=O)Nc2ccccc2)CNC(=O)[C@@H]2[C@H]1CCN2Cc1nc2ccccc2n1C` the activity change, negative = inhibition was inactive: 34.5%.
`CCc1nc2c(c(-c3ccc(Cl)cc3)n1)CN(S(=O)(=O)c1ccccc1)CC2` was tested, and the activity change, negative = inhibition was inactive: 1.07%.
In the case of `CNC(=O)N1CCC(C2CCN(Cc3ccc(Br)o3)C2)CC1` (configuration not stated), the activity change, negative = inhibition is reported as inactive: 0.155%.
In the case of `O=C(NCc1ccccc1)N1CCCCC1c1nc(-c2cnccn2)n[nH]1` (configuration not stated), the activity change, negative = inhibition is reported as inactive: 32.3%.
For `O=C(NCc1ccc(Cl)cc1)[C@@H]1Cc2nc[nH]c2CN1Cc1ccc(Cl)cc1`, the activity change, negative = inhibition was inactive: 20% [at 57.5 µM].
With `O=C(NC1CC(c2cc(NCCO)ncn2)C1)c1cc2ccccc2[nH]1` (configuration not stated) the activity change, negative = inhibition was inactive: 3.8%.
In the case of `O=C(NCc1ccc(F)cc1)c1cnc2n[nH]c(-c3ccccc3)c2n1`, the activity change, negative = inhibition is reported as inactive: -0.14% [at 57.5 µM].
`O=C(NC[C@H]1O[C@@H](CO)[C@@H](O)[C@H]1N1CCN(c2ccccc2)CC1)c1cccs1` was tested, and the activity change, negative = inhibition was inactive: 50.7% [at 57.5 µM].
With `Cc1noc([C@@H]2CNC[C@H]2CO)n1` the activity change, negative = inhibition was inactive: 4.3%.
`CC(=O)N[C@@H]1Cc2ccccc2[C@H]1n1ccnc1-c1cc2n(n1)CCNC2` was tested, and the activity change, negative = inhibition was inactive: 41.3%.
For `CCN1C(=O)C2CC3(CCN(C(=O)CCc4c(C)nn(C)c4C)CC3)CN2C1=O` (configuration not stated), the activity change, negative = inhibition was inactive: 0.0017%.
For `CC[C@H]1CN(C(=O)Nc2cccc(OC)c2)CC[C@H]1CC(=O)NCc1cccnc1`, the activity change, negative = inhibition was inactive: 2.74% [at 57.5 µM].
`O=C(CCc1ccccc1)N1CC[C@H]2COC(=O)N2c2cc(F)ccc2C1` was tested, and the activity change, negative = inhibition was inactive: -0.726% [at 57.5 µM].
With `CCNC(=O)O[C@@H]1CO[C@H]2[C@@H]1OC[C@@H]2NC(=O)Nc1ccc(C(C)C)cc1` the activity change, negative = inhibition was inactive: -0.407% [at 57.5 µM].
In the case of `CC(Cn1cncn1)NC(=O)c1ccc(CCC(C)(C)O)cc1` (configuration not stated), the activity change, negative = inhibition is reported as inactive: 1.79%.
`O=C(NCCc1ccc(Cl)cc1)c1nc(-c2cc(Cl)cc(Cl)c2)c2ccccn12` was tested, and the activity change, negative = inhibition was inactive: 0.233%.
`CN(C)c1ccc(-c2nnc([C@H]3CCN(CC4CC4)C3)o2)cc1` was tested, and the activity change, negative = inhibition was inactive: 8.93% [at 57.5 µM].
In the case of `CCC(N)(CC)c1cn(CC2CCCN(S(C)(=O)=O)C2)nn1` (configuration not stated), the activity change, negative = inhibition is reported as inactive: 14.6%.
With `CC(=O)N1CCN(Cc2ccc(F)c(C(F)(F)F)c2)CC(O)C1` (configuration not stated) the activity change, negative = inhibition was inactive: -4.46%.
In the case of `CCC(C)(C)C(=O)N1CC2CC(C1)[C@H]1CCCC(=O)N1C2` (some centres not stated), the activity change, negative = inhibition is reported as inactive: -1.57%.
In the case of `COCCN1CCC(CN(C)C2CCNCC2)C1` (configuration not stated), the activity change, negative = inhibition is reported as inactive: 32%.
For `Cn1ccc(C(=O)N2CC(CNC(=O)Nc3ccccc3)C3(C2)CN(c2ccccc2)C3)n1` (configuration not stated), the activity change, negative = inhibition was inactive: 0.0488%.
With `CCc1ccc(NC(=O)C2CCN(C(=O)c3nnn4cc(C)[nH]c(=O)c34)CC2)cc1` the activity change, negative = inhibition was inactive: 1.49%.
With `Cc1cc(=O)n(CC(=O)Nc2ccc(C)c(Cl)c2)c(N2CCN(c3ccccc3)CC2)n1` the activity change, negative = inhibition was inactive: 4.18%.
`Cc1nn(-c2ccc(C(C)(C)C)cc2)c(C)c1[C@@H]1C=C[C@@H](NC(=O)c2ccco2)C1` was tested, and the activity change, negative = inhibition was inactive: 3.62% [at 57.5 µM].
`OCc1cccc(-c2ccc3ncc(Nc4ccc(OCCN5CCCC5)cc4)n3n2)c1` was tested, and the activity change, negative = inhibition was inactive: -1.46% [at 57.5 µM].
`COCCOc1ccnc(-c2noc([C@@H]3CCCN3Cc3ccc4c(c3)OCO4)n2)c1` was tested, and the activity change, negative = inhibition was inactive: 4.05% [at 57.5 µM].
With `CC(C)(C)C(=O)N1CC[C@@H](CC(=O)O)[C@@H](CC2=NCCc3cc(F)ccc32)C1` the activity change, negative = inhibition was inactive: 26.2% [at 57.5 µM].
For `CCNC(=O)N[C@@H]1C=C[C@@H](c2c(C)nn(-c3ccc(OC)cc3)c2C)C1`, the activity change, negative = inhibition was inactive: 1.36% [at 57.5 µM].
In the case of `COCC(=O)N[C@@H]1CN(Cc2ccc(C)cn2)C[C@H]1CO`, the activity change, negative = inhibition is reported as inactive: -2.12%.
`COCCc1noc(CN(C)c2cc(C(C)C)nc3ccnn23)n1` was tested, and the activity change, negative = inhibition was inactive: -1.68%.
With `CC(C)(C)c1cc(CC2(NCc3ccc(Cl)cc3)COC2)no1` the activity change, negative = inhibition was inactive: -2.28% [at 57.5 µM].
For `CCOCC(=O)N1CCn2nc(Cc3ccccc3)cc2C1`, the activity change, negative = inhibition was inactive: -0.143%.
`COc1ccc2[nH]c(C[C@@H]3C[C@@H](C(C)C)[C@H](CN(Cc4ccccn4)Cc4ccccn4)C=C3C)nc2n1` was tested, and the activity change, negative = inhibition was inactive: 38.7%.
In the case of `CC(C)(C)c1ccc2oc(CNC(=O)CN3C(=O)CNC3=O)nc2c1`, the activity change, negative = inhibition is reported as inactive: -0.922%.
In the case of `Cc1ccc(-n2nc(C)c([C@@H]3C=C[C@@H](NCc4cccc(C#N)c4)C3)c2C)cc1Cl`, the activity change, negative = inhibition is reported as inactive: -1.91% [at 57.5 µM].
In the case of `O=C(Cc1ccc(OC(F)(F)F)cc1)N1CC2CC(C1)[C@H]1CCCC(=O)N1C2` (some centres not stated), the activity change, negative = inhibition is reported as inactive: -2.02%.
`COc1ccc(C(=O)N2CCC3(CC2)CC(OCC2CC2)CCO3)cn1` (configuration not stated) was tested, and the activity change, negative = inhibition was inactive: 1.34%.
`CCCNC(=O)N[C@@H]1CCC[C@@H](C(=O)NCc2ccc(OC)cc2)CC(=O)N(C)C1` was tested, and the activity change, negative = inhibition was inactive: 2.38% [at 57.5 µM].

From PubChem BioAssay AID1794842 (National Center for Advancing Translational Sciences (NCATS), 2023)
Also: % of control where 0% means no effect.
